Data published in the supplement of paper PMC4967469.
pIC50: −log10 of the molar value. A lower IC50 marks a more sensitive line; a fit beyond the top or the lowest dose is shown as a bound at that dose. The AUC spans the tested range (256-fold, ending at the top dose) of the same fit; it is 1 without any effect and falls as sensitivity rises. Any top dose called inferred was derived from the fitted curves, not read from the paper.

Assays:
Assay in all cases: Viability of human cancer cell lines after 72 h of drug (GDSC screen)
[1] = compound: C=CC(=O)Nc1cc(NC(=O)c2ccc(C)c(NC(=O)c3ccno3)c2)cc(C(F)(F)F)c1 [QL-XI-92]; conditions: top dose 10.24 µM; top dose inferred
Experimental: (§1)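 Human cancer cell lines in 384-well plates, medium with 10% serum, drug for 72 h over a 256-fold dose range (nine 2-fold or five 4-fold steps up to the top dose). Adherent lines were fixed and stained with the nucleic acid dye Syto60, suspension lines read with resazurin; signal relative to control wells, capped at 0 and 100%. One two-parameter sigmoid per drug and line, fitted in a mixed model over all curves with the slope shared within a line.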

[2] = compound: CCC1=C[C@@H]2CN(C1)Cc1c([nH]c3ccccc13)[C@@](C(=O)OC)(c1cc3c(cc1OC)N(C)[C@H]1[C@@](O)(C(=O)OC)[C@H](OC(C)=O)[C@]4(CC)C=CCN5CC[C@]31[C@@H]54)C2 [Vinorelbine]; conditions: top dose 0.064 µM; top dose inferred
Experimental: as §1

[3] = compound: CNCc1ccc(-c2[nH]c3cc(F)cc4c3c2CCNC4=O)cc1 [AG-014699]; conditions: top dose 5 µM; top dose inferred
Experimental: as §1

[4] = compound: COc1cc2ncnc(Nc3cc(Br)c(O)c(Br)c3)c2cc1OC [WHI-P97]; conditions: top dose 10.24 µM; top dose inferred
Experimental: as §1

[5] = compound: N=C(N)NC(=N)NCCc1ccccc1 [Phenformin]; conditions: top dose 4000 µM; top dose inferred
Experimental: as §1

[6] = compound: O=c1cc(CN2CCOCC2)occ1OCCCCCSc1ccnc2cc(C(F)(F)F)ccc12 [EHT 1864]; conditions: top dose 10 µM; top dose inferred
Experimental: as §1

[7] = compound: O=c1cc(N2CCOCC2)oc2c(-c3cccc4c3sc3ccccc34)cccc12 [NU-7441]; conditions: top dose 2 µM; top dose inferred
Experimental: as §1

[8] = compound: COc1cc2nccc(Oc3ccc(NC(=O)C4(C(=O)Nc5ccc(F)cc5)CC4)cc3)c2cc1OC [XL-184]; conditions: top dose 5.12 µM; top dose inferred
Experimental: as §1

Cell Line	AUC [1]	pIC50 [1]	AUC [2]	pIC50 [2]	AUC [3]	pIC50 [3]	AUC [4]	pIC50 [4]	AUC [5]	pIC50 [5]	AUC [6]	pIC50 [6]	AUC [7]	pIC50 [7]	AUC [8]	pIC50 [8]
HT-1080 (fibrosarcoma, adherent)	0.975	< 4.99	0.446	8.54	0.888	5.33	0.989	< 4.99	0.957	< 2.40	0.977	< 5.00	0.945	< 5.70	–	–
IGR-37 (melanoma, adherent)	0.989	< 4.99	0.687	7.90	0.989	< 5.30	0.939	< 4.99	–	–	0.965	< 5.00	0.923	< 5.70	0.896	< 5.29
LN-229 (glioma, adherent)	0.977	< 4.99	0.832	7.39	–	–	0.964	< 4.99	0.86	2.48	0.96	< 5.00	0.988	< 5.70	–	–
LoVo (large intestine, adherent)	0.985	< 4.99	0.613	8.08	–	–	0.987	< 4.99	0.235	4.37	–	–	0.777	6.09	–	–
MDA-MB-157 (breast, adherent)	0.987	< 4.99	0.871	7.20	0.957	< 5.30	0.985	< 4.99	0.798	2.71	0.955	< 5.00	0.912	< 5.70	–	–
MDA-MB-231 (breast, adherent)	0.962	< 4.99	0.787	7.53	0.92	< 5.30	0.986	< 4.99	–	–	0.974	< 5.00	0.982	< 5.70	–	–
MDA-MB-468 (breast, adherent)	0.952	< 4.99	0.523	8.34	–	–	0.912	< 4.99	0.284	4.20	0.911	< 5.00	0.966	< 5.70	0.976	< 5.29
NCI-H23 (lung adenocarcinoma, adherent)	0.89	< 4.99	–	–	0.949	< 5.30	0.892	< 4.99	0.82	2.64	0.95	< 5.00	0.963	< 5.70	0.969	< 5.29
NCI-H358 (lung adenocarcinoma, adherent)	0.925	< 4.99	–	–	0.976	< 5.30	0.805	5.23	0.64	3.19	0.97	< 5.00	0.984	< 5.70	0.895	< 5.29
NCI-H522 (lung adenocarcinoma, adherent)	0.965	< 4.99	–	–	0.97	< 5.30	0.948	< 4.99	0.298	4.22	0.91	< 5.00	0.954	< 5.70	0.972	< 5.29
NCI-H661 (large cell lung carcinoma, adherent)	0.943	< 4.99	–	–	0.891	< 5.30	0.98	< 4.99	0.357	4.03	0.781	5.29	0.901	< 5.70	0.902	< 5.29
NCI-H1703 (lung adenocarcinoma, adherent)	0.684	5.63	–	–	0.981	< 5.30	0.973	< 4.99	0.703	2.97	0.952	< 5.00	0.982	< 5.70	0.85	< 5.29
NCI-H2030 (lung adenocarcinoma, adherent)	0.922	< 4.99	–	–	0.881	< 5.30	0.879	< 4.99	0.817	2.58	0.976	< 5.00	0.922	< 5.70	0.934	< 5.29
NCI-H2110 (non-small cell lung carcinoma, adherent)	0.953	< 4.99	–	–	0.97	< 5.30	0.804	5.28	0.749	2.88	0.96	< 5.00	0.943	< 5.70	0.89	< 5.29
OVCAR-8 (ovary, adherent)	0.986	< 4.99	–	–	0.875	5.39	0.968	< 4.99	0.755	2.91	0.956	< 5.00	0.974	< 5.70	0.926	< 5.29
RPMI-8226 (myeloma, suspension)	0.861	5.16	0.659	7.99	0.987	< 5.30	0.978	< 4.99	0.642	3.23	0.959	< 5.00	0.95	< 5.70	–	–
SK-MEL-28 (melanoma, adherent)	0.986	< 4.99	0.955	< 7.19	0.986	< 5.30	0.963	< 4.99	0.861	2.48	0.988	< 5.00	0.933	< 5.70	–	–
SNU-407 (large intestine, adherent)	0.982	< 4.99	–	–	0.979	< 5.30	0.912	< 4.99	0.893	< 2.40	0.877	< 5.00	0.95	< 5.70	0.933	< 5.29
SW620 (large intestine, adherent)	0.877	5.08	0.633	8.05	–	–	0.982	< 4.99	0.82	2.71	0.977	< 5.00	0.985	< 5.70	0.929	< 5.29
